The text below walks through data of article PMC4103893.

By UniProt entry, the sequences of proteins in these tests, tags left out. Where a name states a change or a piece, a line headed by the entry shows the natural chain unless it says otherwise. Residues count along the entry.
UniProt P06239: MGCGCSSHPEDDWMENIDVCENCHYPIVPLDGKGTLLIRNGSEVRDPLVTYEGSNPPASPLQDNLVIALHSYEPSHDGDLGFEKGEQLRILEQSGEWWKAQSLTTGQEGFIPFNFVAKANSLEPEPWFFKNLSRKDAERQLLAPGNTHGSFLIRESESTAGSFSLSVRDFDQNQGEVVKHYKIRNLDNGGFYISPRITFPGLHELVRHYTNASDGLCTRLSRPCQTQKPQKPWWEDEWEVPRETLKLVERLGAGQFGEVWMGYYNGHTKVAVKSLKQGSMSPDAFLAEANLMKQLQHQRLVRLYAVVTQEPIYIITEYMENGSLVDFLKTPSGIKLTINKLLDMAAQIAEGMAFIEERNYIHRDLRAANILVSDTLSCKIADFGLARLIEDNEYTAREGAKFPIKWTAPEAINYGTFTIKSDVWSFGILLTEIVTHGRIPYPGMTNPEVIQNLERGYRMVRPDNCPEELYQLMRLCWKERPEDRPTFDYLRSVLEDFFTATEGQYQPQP
GST-coupled SH3 domain of Lck: residues 61-121 of P06239
GST-coupled SH3 domain of Abl (P00519, residues 61-121): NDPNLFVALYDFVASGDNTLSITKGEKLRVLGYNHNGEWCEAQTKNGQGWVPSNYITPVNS
GST fusion protein with the SH2 domain of Abl (P00519, residues 127-217): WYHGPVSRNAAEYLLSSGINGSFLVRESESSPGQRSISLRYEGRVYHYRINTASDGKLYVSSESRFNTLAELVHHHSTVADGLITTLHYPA
GST-coupled SH3 domain of Fyn (P06241, residues 82-143): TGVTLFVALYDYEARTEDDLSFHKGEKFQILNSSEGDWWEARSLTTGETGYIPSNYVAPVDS
GST fusion protein with the SH2 domain of Fyn (P06241, residues 149-246): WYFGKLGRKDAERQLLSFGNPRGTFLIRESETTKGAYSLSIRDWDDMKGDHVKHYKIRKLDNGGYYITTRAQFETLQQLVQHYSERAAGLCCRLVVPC
GST-coupled SH3 domain of Hck (P08631, residues 78-138): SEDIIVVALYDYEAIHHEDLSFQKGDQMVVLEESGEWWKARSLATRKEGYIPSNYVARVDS
GST fusion protein with the SH2 domain of Hck (P08631, residues 144-241): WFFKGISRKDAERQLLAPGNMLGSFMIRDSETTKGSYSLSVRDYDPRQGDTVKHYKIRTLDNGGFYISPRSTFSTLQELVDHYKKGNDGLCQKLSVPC
GST-coupled SH3 domain of Yes (P07947, residues 91-152): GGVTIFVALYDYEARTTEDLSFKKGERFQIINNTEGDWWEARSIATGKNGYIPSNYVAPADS
GST fusion protein with the SH2 domain of Yes (P07947, residues 158-255): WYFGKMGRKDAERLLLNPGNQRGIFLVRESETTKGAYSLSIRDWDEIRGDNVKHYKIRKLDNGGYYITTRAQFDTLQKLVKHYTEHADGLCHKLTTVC
UniProt Q9BY11: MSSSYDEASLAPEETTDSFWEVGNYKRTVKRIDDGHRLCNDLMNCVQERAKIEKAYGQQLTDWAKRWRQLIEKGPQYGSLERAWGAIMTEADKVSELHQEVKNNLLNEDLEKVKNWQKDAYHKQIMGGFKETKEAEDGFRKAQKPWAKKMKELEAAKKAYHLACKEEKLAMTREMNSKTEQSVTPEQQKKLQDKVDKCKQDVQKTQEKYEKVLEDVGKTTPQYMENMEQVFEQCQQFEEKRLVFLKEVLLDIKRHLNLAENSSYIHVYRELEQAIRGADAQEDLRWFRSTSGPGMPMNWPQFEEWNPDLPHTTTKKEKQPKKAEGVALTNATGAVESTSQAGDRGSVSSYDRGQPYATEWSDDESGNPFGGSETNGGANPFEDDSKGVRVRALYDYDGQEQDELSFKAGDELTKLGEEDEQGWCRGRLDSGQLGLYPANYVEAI
GST fusion protein with the SH3 domain of PACSIN1: residues 385-444 of Q9BY11
UniProt Q9UNF0: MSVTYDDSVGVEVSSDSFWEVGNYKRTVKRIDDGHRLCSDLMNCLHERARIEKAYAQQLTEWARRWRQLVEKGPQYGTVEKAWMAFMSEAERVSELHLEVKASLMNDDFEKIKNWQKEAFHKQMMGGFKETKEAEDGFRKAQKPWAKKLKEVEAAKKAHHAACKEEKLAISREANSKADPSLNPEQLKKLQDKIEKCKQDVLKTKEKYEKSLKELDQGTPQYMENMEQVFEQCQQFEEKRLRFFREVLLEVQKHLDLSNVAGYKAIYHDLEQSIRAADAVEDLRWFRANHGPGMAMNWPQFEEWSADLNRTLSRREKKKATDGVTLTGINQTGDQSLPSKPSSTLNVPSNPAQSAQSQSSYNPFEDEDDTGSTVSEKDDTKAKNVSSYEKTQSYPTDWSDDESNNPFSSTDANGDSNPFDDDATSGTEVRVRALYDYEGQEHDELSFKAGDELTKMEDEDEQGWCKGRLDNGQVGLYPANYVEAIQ
GST fusion protein with the SH3 domain of PACSIN2: residues 426-486 of Q9UNF0
UniProt P78536, residues 694-824: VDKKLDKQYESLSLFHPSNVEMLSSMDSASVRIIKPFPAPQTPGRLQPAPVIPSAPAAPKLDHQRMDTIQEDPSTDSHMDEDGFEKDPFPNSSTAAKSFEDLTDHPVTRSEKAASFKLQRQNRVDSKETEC
UniProt P62993: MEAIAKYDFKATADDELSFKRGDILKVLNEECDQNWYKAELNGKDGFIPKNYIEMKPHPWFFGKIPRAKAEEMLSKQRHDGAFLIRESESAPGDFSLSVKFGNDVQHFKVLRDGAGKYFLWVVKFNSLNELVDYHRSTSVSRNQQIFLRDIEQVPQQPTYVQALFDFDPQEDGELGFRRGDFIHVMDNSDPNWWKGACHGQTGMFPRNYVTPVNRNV
UniProt Q9Y5X1: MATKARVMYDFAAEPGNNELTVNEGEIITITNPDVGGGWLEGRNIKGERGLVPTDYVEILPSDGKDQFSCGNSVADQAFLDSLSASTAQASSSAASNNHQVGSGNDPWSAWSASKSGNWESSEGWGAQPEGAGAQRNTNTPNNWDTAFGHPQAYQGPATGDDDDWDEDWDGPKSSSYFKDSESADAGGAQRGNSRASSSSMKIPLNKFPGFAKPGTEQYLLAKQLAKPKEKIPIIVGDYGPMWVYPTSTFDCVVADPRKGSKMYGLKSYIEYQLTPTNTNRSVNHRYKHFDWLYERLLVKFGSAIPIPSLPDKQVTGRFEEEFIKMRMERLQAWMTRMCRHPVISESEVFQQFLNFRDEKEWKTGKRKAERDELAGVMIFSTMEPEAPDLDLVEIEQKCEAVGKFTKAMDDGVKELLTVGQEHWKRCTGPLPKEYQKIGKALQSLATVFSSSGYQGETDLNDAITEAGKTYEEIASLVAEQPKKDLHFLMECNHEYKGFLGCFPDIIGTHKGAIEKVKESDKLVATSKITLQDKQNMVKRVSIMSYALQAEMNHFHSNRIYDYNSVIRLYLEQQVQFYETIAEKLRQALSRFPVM

These are yes or no findings as the source states them, for the method shown. In cells and extracts the contact can be indirect. Some binding calls cover weakened binding; strength is not graded here. For some assays here: Where a sequence is shown, tags or fusion partners need not be part of it.

Test [1] deals with T1, GST-hADAM10(697–748) (human) (UniProt O14672).
T1 sequence: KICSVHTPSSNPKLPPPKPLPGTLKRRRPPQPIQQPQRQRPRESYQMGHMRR
Put plainly: pull-down; 10 µg GST or GST-hADAM10(697–748); lysate of Jurkat cells (JE6-1), 900 µg/ml protein; blot with polyclonal anti-Grb2; only the target purified.

Test [2] deals with GST-coupled SH3 domain of Lck (human) (UniProt P06239). Nature of the test: pull-down; as Fig. 3A (GST-Lck SH3, JFL lysate, mAb 11G2), longer exposure times; data not shown; only the target purified.
The target of test [3] is Lck (endogenous) (human (endogenous in Jurkat)) (UniProt P06239). Put plainly: co-IP; endogenous proteins, Jurkat T cells (JE6-1); 2 µg of mAbs against Lck (4/129, 4/215) or ADAM10 (11G2) with Protein G beads; blots with mAb 11G2 or anti-Grb2 (C-23).
Test [4] deals with GST fusion protein with the SH2 domain of Abl (human) (UniProt P00519). Put plainly: pull-down; 10-15 µg GST fusion proteins (SH3 or SH2 domains) or GST on glutathione sepharose; lysates of Jurkat T cells (JFL); blot with anti-ADAM10 mAb 11G2; only the target purified.
Test [5] has as its target GST fusion protein with the SH2 domain of Fyn (UniProt P06241). Described as above.
Test [6] addresses GST fusion protein with the SH2 domain of Hck (UniProt P08631). The description is as above.
The target in test [7] is GST fusion protein with the SH2 domain of Yes (UniProt P07947). The description is as above.
For test [8], the target named is GST fusion protein with the SH3 domain of PACSIN1 (UniProt Q9BY11). The description is as above.
The target in test [9] is GST fusion protein with the SH3 domain of PACSIN2 (UniProt Q9UNF0). The test is described as above.
The target of test [10] is GST-coupled SH3 domain of Abl (human) (UniProt P00519). The description is as above.
In test [11] the target is GST-coupled SH3 domain of Fyn (UniProt P06241). The description is as above.
Test [12] concerns the target GST-coupled SH3 domain of Hck (UniProt P08631). The test is described as above.
Test [13] has as its target GST-coupled SH3 domain of Lck (human) (UniProt P06239). Described as above.
The target of test [14] is GST-coupled SH3 domain of Yes (UniProt P07947). Described as above.
For test [15], the target named is T1, GST-hADAM10(697–748) (human). Put plainly: pull-down; 10 or 25 µg of GST, GST-hADAM10(697–748) or GST-hADAM17(694–824); lysates of HEK 293T cells transfected with HA-tagged sorting nexins or myc-tagged PACSINs; blots against the HA- or myc-tag; only the target purified.
Test [16] deals with GST-hADAM17(694–824) (human) (UniProt P78536). The test is described as above.

For the substance “Grb2 (endogenous) (from UniProt P62993 1-217)”, the binding result in test [1] is listed as “binds”.
Consider “mature ADAM10 (endogenous) (from UniProt O14672 214-748)”, for which the binding entry in test [2] is “binds”; in test [3], “binds”; in test [4], “no binding (tested: 10 µg)”; in test [5] it was “no binding (tested: 10 µg)”; in test [6], “no binding (tested: 10 µg)”; in test [7], “no binding (tested: 10 µg)”. For the same substance, the binding entry in test [8] is listed as “binds”; in test [9], “binds”; in [10], “binds”; in [11] it was “binds”; in test [12], “binds”; in [13] it was “binds weakly”. In test [14], the binding result is “binds”.
As to “myc-tagged PACSIN2 (from UniProt Q9UNF0 1-486)”, the binding entry in test [15] and in [16] was “binds” each time.
Regarding “myc-tagged PACSIN1 (from UniProt Q9BY11 1-444)”, the binding result in test [15] and in test [16] was “binds” in each case.
As to “HA-tagged SNX9 (from UniProt Q9Y5X1 1-595)”, the binding result in test [15] and in test [16] was “binds” each time.
